# Out of some 310,000 compounds screened, about 14,000 (4.5%) showed an effect of 50% or more. Effects have a minus sign here. The list shows a part of the results.
# Molecular target: human ether-à-go-go-related gene (hERG) potassium channel (human, UniProt Q12809)
# Assay: primary screen, population patch clamp on CHO cells stably expressing hERG
# 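Also: peak tail current of the secondary pulse compared with the same well before compound.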
# Sequence of human ether-à-go-go-related gene (hERG) potassium channel (Q12809 whole entry, looked up): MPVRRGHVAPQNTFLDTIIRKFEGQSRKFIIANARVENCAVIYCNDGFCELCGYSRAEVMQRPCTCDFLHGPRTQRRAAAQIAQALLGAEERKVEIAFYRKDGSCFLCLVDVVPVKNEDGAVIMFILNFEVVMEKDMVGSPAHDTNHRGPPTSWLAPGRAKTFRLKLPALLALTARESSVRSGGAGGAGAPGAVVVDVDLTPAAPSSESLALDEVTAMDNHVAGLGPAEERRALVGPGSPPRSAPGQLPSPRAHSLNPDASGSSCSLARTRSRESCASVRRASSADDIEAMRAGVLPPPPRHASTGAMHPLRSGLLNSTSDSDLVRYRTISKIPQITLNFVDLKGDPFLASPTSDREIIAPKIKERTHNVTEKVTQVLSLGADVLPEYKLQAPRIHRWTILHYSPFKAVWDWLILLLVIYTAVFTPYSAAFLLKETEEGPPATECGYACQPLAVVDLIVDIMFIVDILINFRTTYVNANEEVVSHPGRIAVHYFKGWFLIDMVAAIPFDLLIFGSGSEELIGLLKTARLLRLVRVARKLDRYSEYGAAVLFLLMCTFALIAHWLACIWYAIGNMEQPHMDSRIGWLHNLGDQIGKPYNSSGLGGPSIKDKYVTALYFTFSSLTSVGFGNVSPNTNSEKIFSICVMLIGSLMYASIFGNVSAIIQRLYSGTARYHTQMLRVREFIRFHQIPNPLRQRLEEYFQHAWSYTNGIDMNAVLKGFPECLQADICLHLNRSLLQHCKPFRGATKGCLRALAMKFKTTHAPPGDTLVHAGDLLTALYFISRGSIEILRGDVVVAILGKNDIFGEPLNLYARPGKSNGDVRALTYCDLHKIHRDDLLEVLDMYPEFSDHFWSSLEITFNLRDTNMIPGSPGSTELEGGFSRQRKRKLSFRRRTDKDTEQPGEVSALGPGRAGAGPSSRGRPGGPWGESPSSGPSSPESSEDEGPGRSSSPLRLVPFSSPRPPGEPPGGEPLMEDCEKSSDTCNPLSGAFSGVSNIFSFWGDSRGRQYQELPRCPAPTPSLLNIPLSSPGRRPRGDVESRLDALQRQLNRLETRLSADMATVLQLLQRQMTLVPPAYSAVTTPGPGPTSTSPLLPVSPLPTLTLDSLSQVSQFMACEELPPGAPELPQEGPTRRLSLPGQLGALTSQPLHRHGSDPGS
row,Compound,"hERG current change (%, negative = inhibition) at 10uM"
1,CC(=O)c1ccc(OCc2cc(C(=O)N(C)Cc3nc4c(C)cccc4[nH]3)no2)cc1,-10.7%
2,O=C(/C=C/c1ccc(Cl)cc1)N1CCN(c2ccccc2[N+](=O)[O-])CC1,-75.4%
3,Cc1cc(NC(=O)Cn2nnc(-c3ccccc3NC(=O)c3ccccc3F)n2)no1,12.5%
4,CC(=O)c1cc2c(cc1NC(=O)CSc1ccc(S(=O)(=O)N(C)C)cn1)OCO2,-4.15%
5,CC(=O)CSc1nsc(SCC(C)=O)c1C#N,17.2%
6,CC(=O)N1C(c2ccccc2)CC(=O)OC1c1ccc2c(c1)OCO2 (stereo not shown),15.9%
7,CCCCOc1ccc(S(=O)(=O)N2CCCCC2)cc1,-1.17%
8,CCC(CC)c1nnc(NC(=O)c2cccnc2SC)s1,15.4%
9,O=C(CNCCCO)Nc1cc(C(F)(F)F)cc(NC(=O)CNCCCO)c1Cl,-3.98%
10,O=C(c1ccccc1NS(=O)(=O)c1ccc(Br)cc1)N1CCOCC1,-0.073%
11,Cc1ccc(-n2nnc3c(=O)n(Cc4cc(C)ccc4C)cnc32)cc1,3.64%
12,N#C/C(=C(/O)c1ccc2c(c1)OCO2)c1nc2cc(C(F)(F)F)ccc2s1,33.5%
13,CC(C)(C)NC(=O)C(c1ccccn1)N(C(=O)C1CSC(=O)C1)c1ccccc1F (stereo not shown),18%
14,C=CCN1C(=O)/C(=c2\sc3nc(=O)c(Cc4ccccc4)nn3c2=O)c2ccccc21,13.5%
15,Cc1ccc(C(=O)OCC(=O)NC(=O)c2ccccc2)o1,-2.91%
16,CCOC(=O)N1CCN(C(=O)/C(=C/c2ccc(OC)cc2)NC(=O)c2ccccc2)CC1,-68.4%
17,CN1CCc2c(sc3c2C(=O)NC(c2ccc(-c4ccc(Cl)cc4)o2)N3)C1 (stereo not shown),-24.1%
18,CCCCn1c(SCC(=O)c2ccc(O)cc2O)nc2cc(S(N)(=O)=O)ccc21,-2.55%
19,Cc1ccc(NC(=O)COc2coc(CN3CCc4ccccc43)cc2=O)cc1Cl,8.03%
20,CCc1nc(SCC(=O)Nc2ccccc2OC)c2c(C)c(C)sc2n1,16.9%
21,CC1CCC2C(=O)N(c3ccccc3OC(=O)c3ccccc3F)C(=O)C2C1 (stereo not shown),-10.3%
22,O=c1cc(N2CCCCC2)nc2n1CCCS2,10.9%

row,Compound,"hERG current change (%, negative = inhibition) at 10uM"
1,CCCCNc1ccc(C(CC(N)=O)NC(=O)c2ccccc2)cc1[N+](=O)[O-] (stereo not shown),-3.54%
2,CC(C)C(NC(=O)c1ccccc1)C(=O)OCC(=O)N1CCN(c2ccccc2)CC1 (stereo not shown),-2.47%
3,Cc1ccc(NC(=O)Cn2cccc2C2=NC(c3ccccc3)CO2)c(C)c1 (stereo not shown),-1.88%
4,O=C(Oc1ccc(NC(=O)c2cc3c(cc2Br)OCO3)cc1)c1ccccc1,12.3%
5,CCCCCCOc1ccc(N2C(=O)CC(N3CCN(CCN=CC4C(=O)CC(C)(C)CC4=O)CC3)C2=O)cc1 (stereo not shown),-32.5%
6,C/C(N)=C(/C#N)C(=O)COC(=O)C(c1ccccc1)c1ccccc1,32.8%
7,CC(C)COC(=O)C(C#N)c1nc2ccccc2nc1N1CCN(Cc2ccccc2)CC1 (stereo not shown),-12%
8,COc1ccc(-c2[nH]ncc2/C=N/NC(=O)c2cc(Br)ccc2O)c(OC)c1,14.8%
9,CSc1nnc2c(n1)c(C)nn2-c1ccc(C)cc1,-8.25%
10,Cc1cccc(NC(=O)Nc2ccccc2)n1,9.76%
11,COc1ccc2nc(SC)cc(C)c2c1,16.5%
12,COc1ccc(OCCNC(=O)c2cc(C3CC3)nc3c2cnn3C(C)C)cc1,-25%
13,O=C(NCCc1ccc2c(c1)OCCO2)c1ccc(F)cc1,6.45%
14,COc1ccc(C(=O)NCCCn2ccnc2)cc1[N+](=O)[O-],-8.22%
15,COc1ccccc1CNC(=O)c1ccc(N2CCOCC2)c([N+](=O)[O-])c1,-26.6%
16,CCOC(=O)c1cc(-c2ccco2)nc2c1c(C)nn2CCC#N,-17.3%
17,COC(=O)c1cc(CSc2nc3ccccc3c(=O)n2C)oc1C,20%
18,N#CCC(=O)Nc1ncc(Cc2ccccc2Cl)s1,8.34%
19,O=C(Nc1ncnc2sc3c(c12)CCCC3)c1ccncc1,-14.2%
20,CCCCn1c(N)c(C(=S)NC(=O)CC(C)(C)C)c(=O)n(C)c1=O,14%
21,N#CC(C#N)=NNc1ccc(S(=O)(=O)N2CCCC2)cc1,-17.8%
22,COc1ccc([C@H]2CC(=O)C=C(c3ccc(Cl)c(C(F)(F)F)c3)C2)cc1OC,18%

row,Compound,"hERG current change (%, negative = inhibition) at 10uM"
1,O=C(NCc1cccs1)c1cc2c(s1)CS(=O)(=O)C2,-0.732%
2,Cc1cc(NC(=O)C2CC(=O)N(c3ccc(Cl)cc3)C2)no1 (stereo not shown),-11%
3,CCOC(=O)C(C(=O)NCc1ccc(F)cc1)c1ncc(C(F)(F)F)cc1Cl (stereo not shown),-7.37%
4,CCCCC(c1nnnn1CC1CCCO1)N1CCN(c2ccccc2)CC1.Cl (stereo not shown),9.63%
5,CC(=O)N1CCN(c2cccc(C)c2C)CC1,-0.674%
6,COc1ccc(OCC(=O)N/N=C(\C)c2ccc(-n3ccnc3)cc2)cc1,-42.6%
7,CSc1c(C#N)sc(=S)n1-c1ccc(C)cc1,-12.9%
8,Cc1cc(C(=O)COC(=O)c2ccccc2NCCO)c(C)n1CC1CCCO1 (stereo not shown),-18.2%
9,Cc1cc(C)c2cc(C#N)c(NCCNC(=S)NCCCN3CCOCC3)nc2c1,-4.45%
10,COc1ccc(NC2c3ccccc3C(=O)N2Cc2ccccc2Cl)cc1OC (stereo not shown),-24.2%
11,CC(C)(C)C(=O)N1CCN(c2ccc([N+](=O)[O-])cc2-n2cccc2)CC1,-26.3%
12,Cc1ccc(S(=O)(=O)N2CCCOC2CNC(=O)C(=O)NC2CCCCC2)cc1 (stereo not shown),1.38%
13,CCC1Sc2ccccc2N(CC(=O)NCc2ccccc2OC)C1=O (stereo not shown),0.413%
14,Cc1onc(-c2ccccc2)c1C(=O)N1CCCSC1=Nc1ccccc1,8.14%
15,O=C(CCCOc1ccc(Cl)cc1)Nc1cccc(C(=O)O)c1,13%
16,CCOC(=O)CN(C(=O)CNC(=O)c1cccs1)C(C(=O)NC1CCCCC1)c1cccnc1 (stereo not shown),6.29%
17,Cc1ccc(C(C)C)c(OCCCCCN2CCOCC2)c1,-24.1%
18,Cc1cc(/C=C(\C#N)C(=O)Nc2ccc(Cl)cc2)c(C)n1-c1ccc(N2CCOCC2)c([N+](=O)[O-])c1,4.13%
19,Cc1ccnc(N2CCC(C(=O)NCc3ccc(F)cc3)CC2)n1,-12%
20,Cc1nnc(NC(=O)c2ccc3ccccc3c2)o1,10.9%
21,CCOc1ccc2nc(NCCCNC(=O)c3cc(OC)c(OC)c(OC)c3)c(C#N)cc2c1,-51.3%
22,O=C(NCc1ccco1)c1ccccc1F,7.62%

row,Compound,"hERG current change (%, negative = inhibition) at 10uM"
1,CCCNC(=O)c1cccc(COCC(F)(F)F)c1,-2.57%
2,CCOc1ccccc1CN1CCNC(=O)C1CC(=O)NCCN1CCOC1=O (stereo not shown),16.6%
3,O=C(N/N=C/c1ccncc1)C1CC1(c1ccccc1)c1ccccc1 (stereo not shown),-24.9%
4,O=C(O)C1CCCCC1C(=O)NCc1ccccn1 (stereo not shown),22.3%
5,O=C(N/N=C/c1c[nH]c2ccccc12)c1ccc2c(c1)OCCO2,-12.5%
6,CC(=O)Cc1nsc(NC(=O)c2oc(-c3ccccc3Cl)cc2C)n1,14.6%
7,O=C(CC(C(=O)O)C1CCCO1)NCc1ccccc1 (stereo not shown),-0.104%
8,CSc1ncccc1C(=O)Nc1ccc(S(=O)(=O)Nc2nccs2)cc1,-4.52%
9,COc1ccc(OC)c2sc(N(CCCN(C)C)C(=O)CCS(=O)(=O)c3ccccc3)nc12.Cl,-70.5%
10,O=C1Nc2cc(Cl)c(Cl)cc2N(O)N1c1cccc(Cl)c1,21%
11,CC(=O)N(CCC(c1ccco1)C(C)C)Cc1ccc(Cl)cc1 (stereo not shown),-20%
12,Cc1cccc(CSc2nnc(N)n2-c2ccccc2)c1,-7.13%
13,Cc1cc(C)cc(C(=O)NCCCc2ccccc2)c1,-4.26%
14,O=C(CSCc1ccc(Br)cc1)NCCc1ccccc1,-12.8%
15,COc1ccccc1CNC(=O)C1CCN(C(=O)NC2CCCCC2)CC1,10.6%
16,Cc1cccc(C)c1NC(=O)NN=C1CCCCC1,12.8%
17,Cc1ccc(S(=O)(=O)N(C)C)cc1NC(=S)NC(C)CCCC(C)C (stereo not shown),-3.02%
18,c1csc(-c2nn3c(Cn4cnc5ccccc54)nnc3s2)c1,4.33%
19,CC#CC(=O)N1CCC(n2nccc2NC(=O)c2ccc3c(c2)OCO3)CC1,-11.4%
20,CCCc1nc2c(nnn2Cc2ccccc2Cl)c(=O)[nH]1,64.6%
21,COc1ccc(NS(=O)(=O)c2cc(NC(=O)c3ccccc3F)ccc2N2CCCC2)cc1,4.48%
22,CC(=O)C1=C(O)C(=O)N(Cc2ccco2)C1c1ccccc1F (stereo not shown),19%
